Experiment in all cases: Viability of human cancer cell lines after 72 h of drug (GDSC screen)
Compound in assay [1]: C#Cc1cccc(Nc2ncnc3cc(OC)c(OCCCCCCC(=O)NO)cc23)c1 [CUDC-101]
To be noted: top dose 5.12 µM; top dose inferred. As for the experimental part:
(§1)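 Human cancer cell lines in 384-well plates, medium with 10% serum, drug for 72 h over a 256-fold dose range (nine 2-fold or five 4-fold steps up to the top dose). Adherent lines were fixed and stained with the nucleic acid dye Syto60, suspension lines read with resazurin; signal relative to control wells, capped at 0 and 100%. One two-parameter sigmoid per drug and line, fitted in a mixed model over all curves with the slope shared within a line.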

Compound in assay [2]: CC(C)(C)c1cc(NC(=O)Nc2ccc(-c3cn4c(n3)sc3cc(OCCN5CCOCC5)ccc34)cc2)no1 [AC220]
To be noted: top dose 1.024 µM; top dose inferred. How it is done:
as §1

Compound in assay [3]: COc1cc(F)c(F)c(Nc2ccc(I)cc2F)c1NS(=O)(=O)C1(C[C@H](O)CO)CC1 [RDEA119]
The note with it: top dose 5 µM, top dose inferred. How it is done:
as §1

Compound in assay [4]: Fc1cc(-c2ccnc(Nc3ccc(-n4cnc(N5CCOCC5)n4)cc3)n2)cc(N2CCOCC2)c1 [JNK-9L]
The note with it: top dose 5.12 µM; top dose inferred. How it is done: as §1

Compound in assay [5]: NCC(=O)Nc1ccc(-n2nc(C(F)(F)F)cc2-c2ccc3c(ccc4ccccc43)c2)cc1 [OSU-03012]
The note with it: top dose 16 µM; top dose inferred. As for the experimental part:
as §1

Compound in assay [6]: O=c1[nH]cc(F)c(=O)[nH]1 [5-Fluorouracil]
To be noted: top dose 32 µM; top dose inferred. As for the experimental part: as §1

Compound in assay [7]: OC[C@H](Cc1ccccc1)Nc1nc(Oc2ccc3c(c2)CCC3)nc2c1ncn2Cc1ccc(-c2ccccc2)cc1 [QS11]
To be noted: top dose 10.24 µM. How it is done:
as §1

By IC50 is meant the dose at which the fit gives 50% viability; fits outside the tested doses are given as limits. For AUC the same curve is integrated over the 256-fold range of doses and scaled to a fraction: 1 means no effect, lower means more sensitive. For part of these data: A top dose marked as inferred comes from the curve model; the source does not state it. For part of these data: An entry number marks a drug with two screens in the source, which often give different values.

Take NB1 (neuroblastoma, semi-adherent): the AUC was 0.903 in assay [1]; 0.97 in assay [2]; 0.864 in assay [3] (screen: GDSC drug entry 1014); 0.908 in assay [3] (screen: GDSC drug entry 1526); 0.528 in assay [4]; 0.855 in assay [5]. Besides, the results for the AUC in assay [6] and in assay [7] were 0.903 and 0.815, respectively. Besides, the IC50 (commonly the concentration needed to halve the response being measured) in assay [1] was greater than 5.12 µM; in assay [2], greater than 1.02 µM; in assay [3] (screen: GDSC drug entry 1014), greater than 5 µM; in assay [3] (screen: GDSC drug entry 1526) it was greater than 5 µM; in assay [4], 0.384 µM; in assay [5], 14.8 µM. Further, the IC50 in assay [6] was greater than 32 µM; in assay [7], 6.37 µM.
With NB5 (neuroblastoma, adherent), the AUC in assay [1] amounted to 0.803; in assay [2], 0.97; in assay [3] (screen: GDSC drug entry 1014), 0.679; in assay [3] (screen: GDSC drug entry 1526) it was 0.71; in assay [4], 0.711; in assay [5], 0.855. Also, the figures for the AUC in assay [6] and in assay [7] were 0.875 and 0.983, respectively. The concentration for half-maximal inhibition (IC50) in assay [1] was 2.58 µM; in assay [2], greater than 1.02 µM; in assay [3] (screen: GDSC drug entry 1014), 0.997 µM; in assay [3] (screen: GDSC drug entry 1526), 1.24 µM; in assay [4], 1.27 µM; in assay [5], 13 µM. The half-maximal inhibitory concentration (IC50) in assay [6] was greater than 32 µM; in assay [7] it was greater than 10.2 µM.
On to NB7 (neuroblastoma, adherent), for which the AUC in assay [1] was determined as 0.39; in assay [2], 0.958; in assay [3] (screen: GDSC drug entry 1014), 0.986; in assay [3] (screen: GDSC drug entry 1526) it was 0.875; in assay [4], 0.184; in assay [5], 0.721. The AUC in assay [6] was found to be 0.802; in assay [7] it was 0.887. For the same cell line, the IC50 was 0.158 µM in assay [1]; greater than 1.02 µM in assay [2]; greater than 5 µM in assay [3] (screen: GDSC drug entry 1014); greater than 5 µM in assay [3] (screen: GDSC drug entry 1526); 0.034 µM in assay [4]; 4.36 µM in assay [5]. Besides, the IC50 in assay [6] is 16.6 µM; in assay [7] it was greater than 10.2 µM.
As for NB10 (neuroblastoma, adherent), the AUC in assay [1] turned out to be 0.754; in assay [2], 0.987; in assay [3] (screen: GDSC drug entry 1014), 0.954; in assay [3] (screen: GDSC drug entry 1526) it was 0.919; in assay [4] it was 0.67; in assay [5] it was 0.803. For the same cell line, the results for the AUC in assay [6] and in assay [7] were 0.669 and 0.827, respectively. Moreover, the half-maximal inhibitory concentration (IC50) in assay [1] is 1.69 µM; in assay [2], greater than 1.02 µM; in assay [3] (screen: GDSC drug entry 1014), greater than 5 µM; in assay [3] (screen: GDSC drug entry 1526), greater than 5 µM; in assay [4], 0.94 µM; in assay [5] it was 7.71 µM. Besides, the half-inhibitory concentration (IC50) in assay [6] amounted to 5.83 µM; in assay [7] it was 6.05 µM.
With NB12 (neuroblastoma, adherent), the AUC in assay [1] worked out at 0.129; in assay [2], 0.889; in assay [3] (screen: GDSC drug entry 1014), 0.963; in assay [3] (screen: GDSC drug entry 1526), 0.666; in assay [4], 0.567; in assay [5] it was 0.853. Moreover, the AUC in assay [6] is 0.797; in assay [7] it was 0.963. Moreover, the IC50 in assay [1] is less than 0.02 µM; in assay [2], greater than 1.02 µM; in assay [3] (screen: GDSC drug entry 1014), greater than 5 µM; in assay [3] (screen: GDSC drug entry 1526), 1.07 µM; in assay [4], 0.518 µM; in assay [5], greater than 16 µM. In addition, the half-maximal inhibitory concentration (IC50) was 21.4 µM in assay [6] and greater than 10.2 µM in assay [7].
Consider NB13 (neuroblastoma, adherent), for which the AUC in assay [1] stood at 0.278; in assay [2], 0.99; in assay [3] (screen: GDSC drug entry 1014), 0.977; in assay [3] (screen: GDSC drug entry 1526), 0.982; in assay [4] it was 0.641; in assay [5], 0.691. In addition, the results for the AUC in assay [6] and in assay [7] were 0.639 and 0.873, respectively. For the same cell line, the IC50 in assay [1] was 0.0818 µM; in assay [2], greater than 1.02 µM; in assay [3] (screen: GDSC drug entry 1014), greater than 5 µM; in assay [3] (screen: GDSC drug entry 1526), greater than 5 µM; in assay [4], 0.745 µM; in assay [5], 3.19 µM. Also, the half-maximal inhibitory concentration (IC50) in assay [6] was 4.62 µM; in assay [7] it was 7.92 µM.
As to NB69 (neuroblastoma, adherent), the AUC in assay [1] stood at 0.592; in assay [2], 0.967; in assay [3] (screen: GDSC drug entry 1014), 0.591; in assay [4], 0.429; in assay [5], 0.78; in assay [6], 0.864. The AUC in assay [7] stood at 0.956. Moreover, the IC50 was 0.555 µM in assay [1]; greater than 1.02 µM in assay [2]; 0.538 µM in assay [3] (screen: GDSC drug entry 1014); 0.209 µM in assay [4]; 5.8 µM in assay [5]; 22.9 µM in assay [6]. In addition, in assay [7], the IC50 was greater than 10.2 µM.
Regarding NB(TU)1-10 (neuroblastoma, adherent), the AUC worked out at 0.52 in assay [1]; 0.992 in assay [2]; 0.884 in assay [3] (screen: GDSC drug entry 1014); 0.967 in assay [3] (screen: GDSC drug entry 1526); 0.562 in assay [4]; 0.747 in assay [5]. Further, the AUC was 0.698 in assay [6] and 0.911 in assay [7]. The 50% inhibitory concentration (IC50) in assay [1] was 0.359 µM; in assay [2], greater than 1.02 µM; in assay [3] (screen: GDSC drug entry 1014) it was 4.15 µM; in assay [3] (screen: GDSC drug entry 1526), greater than 5 µM; in assay [4], 0.46 µM; in assay [5] it was 4.53 µM. Also, the IC50 is 6.57 µM in assay [6] and greater than 10.2 µM in assay [7].

The values are drawn from the supplement of paper PMC4967469.
